Results taken from PMC3170326, “AKAP12 and AKAP5 form higher-order hetero-oligomers” (Journal of Molecular Signaling, 2011).
Results are given in words; binding and its absence hold for the method and conditions named. For part of these data: Tags and fused reporters may be left off the sequences shown.

Sequences of proteins named here, by UniProt entry; tags and fusion partners are left off.
UniProt Q13283: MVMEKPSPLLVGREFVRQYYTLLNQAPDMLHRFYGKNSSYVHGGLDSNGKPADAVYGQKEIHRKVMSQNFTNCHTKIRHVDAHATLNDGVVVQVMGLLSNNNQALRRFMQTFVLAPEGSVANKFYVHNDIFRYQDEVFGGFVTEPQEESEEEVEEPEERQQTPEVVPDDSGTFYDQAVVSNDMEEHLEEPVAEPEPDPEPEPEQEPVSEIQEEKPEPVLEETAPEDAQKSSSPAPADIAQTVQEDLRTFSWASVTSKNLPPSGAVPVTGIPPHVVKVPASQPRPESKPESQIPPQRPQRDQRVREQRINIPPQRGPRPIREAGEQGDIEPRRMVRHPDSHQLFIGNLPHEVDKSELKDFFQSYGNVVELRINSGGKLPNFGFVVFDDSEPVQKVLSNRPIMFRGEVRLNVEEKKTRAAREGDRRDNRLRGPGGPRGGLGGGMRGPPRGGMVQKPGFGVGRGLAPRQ

Key:
Experiment in all cases: pull-down; AKAP12 bait on beads (HA-AKAP12 on agarose beads; His-AKAP12 (1-840) or (840-1782) cross-linked to CNBr-activated Sepharose 4B), incubated with purified His-AKAP5 or GST-G3BP1 in PBS, 1% Triton X-100, 1 mg/ml BSA, 4°C 1 h (for 840-1782 also 37°C 1 h and 4°C 17 h); immunoblot with anti-AKAP5 or anti-GST; both purified
[1] = biological target: T1, His-tagged AKAP12 (1-840) (human) (UniProt Q02952)
T1 sequence: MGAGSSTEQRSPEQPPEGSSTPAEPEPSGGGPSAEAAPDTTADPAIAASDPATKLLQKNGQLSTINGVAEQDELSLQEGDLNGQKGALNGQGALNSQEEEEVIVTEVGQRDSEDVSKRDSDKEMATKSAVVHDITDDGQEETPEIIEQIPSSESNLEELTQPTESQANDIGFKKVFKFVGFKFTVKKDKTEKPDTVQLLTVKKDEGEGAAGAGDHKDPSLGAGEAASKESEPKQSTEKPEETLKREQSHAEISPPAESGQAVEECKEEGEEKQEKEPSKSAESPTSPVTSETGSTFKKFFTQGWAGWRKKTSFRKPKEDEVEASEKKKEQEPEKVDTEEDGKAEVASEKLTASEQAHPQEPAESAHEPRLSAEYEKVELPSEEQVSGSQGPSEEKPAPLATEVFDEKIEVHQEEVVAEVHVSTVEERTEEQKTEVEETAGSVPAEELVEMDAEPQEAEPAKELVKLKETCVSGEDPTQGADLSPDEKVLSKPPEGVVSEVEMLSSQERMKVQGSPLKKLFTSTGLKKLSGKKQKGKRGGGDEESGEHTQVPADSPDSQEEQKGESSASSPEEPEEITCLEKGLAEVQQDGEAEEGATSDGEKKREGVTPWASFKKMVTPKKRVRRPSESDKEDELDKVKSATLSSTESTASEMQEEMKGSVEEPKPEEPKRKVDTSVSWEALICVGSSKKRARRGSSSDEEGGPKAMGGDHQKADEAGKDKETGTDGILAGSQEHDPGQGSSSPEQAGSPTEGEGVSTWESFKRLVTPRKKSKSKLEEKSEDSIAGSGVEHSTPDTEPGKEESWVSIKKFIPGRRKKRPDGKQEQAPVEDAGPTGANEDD

[2] = biological target: T2, His-tagged AKAP12 (840-1782) (human) (UniProt Q02952)
T2 sequence: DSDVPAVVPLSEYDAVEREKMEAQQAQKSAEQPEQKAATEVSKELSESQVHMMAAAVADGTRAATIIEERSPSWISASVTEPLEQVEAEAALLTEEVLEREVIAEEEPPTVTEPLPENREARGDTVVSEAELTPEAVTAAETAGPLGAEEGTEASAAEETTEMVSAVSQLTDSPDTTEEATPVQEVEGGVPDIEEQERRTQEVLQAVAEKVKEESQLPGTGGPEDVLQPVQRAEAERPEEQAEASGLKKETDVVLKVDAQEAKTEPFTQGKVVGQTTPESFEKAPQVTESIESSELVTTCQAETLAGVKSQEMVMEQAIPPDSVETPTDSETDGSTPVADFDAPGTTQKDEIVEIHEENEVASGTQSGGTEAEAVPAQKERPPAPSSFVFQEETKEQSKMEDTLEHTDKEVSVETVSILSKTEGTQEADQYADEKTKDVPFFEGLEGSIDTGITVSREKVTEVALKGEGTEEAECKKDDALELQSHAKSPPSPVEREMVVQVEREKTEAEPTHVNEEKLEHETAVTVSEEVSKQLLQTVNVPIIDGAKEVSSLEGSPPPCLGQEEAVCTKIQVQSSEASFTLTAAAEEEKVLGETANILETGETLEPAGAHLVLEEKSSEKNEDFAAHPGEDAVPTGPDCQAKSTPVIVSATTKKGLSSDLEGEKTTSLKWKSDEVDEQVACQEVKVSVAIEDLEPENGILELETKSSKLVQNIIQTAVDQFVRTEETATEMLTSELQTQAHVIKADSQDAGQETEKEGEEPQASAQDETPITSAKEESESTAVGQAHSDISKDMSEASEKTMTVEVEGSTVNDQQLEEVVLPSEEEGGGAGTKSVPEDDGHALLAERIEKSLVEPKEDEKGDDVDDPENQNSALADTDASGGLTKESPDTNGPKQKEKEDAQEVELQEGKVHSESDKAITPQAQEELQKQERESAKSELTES

[3] = biological target: HA-tagged AKAP12 (full-length), purified, immobilized to agarose beads (human) (UniProt Q02952)

Measured: binding

GST-tagged G3BP1 (from UniProt Q13283 1-466)
no binding: [1] | [2] | [3]
